The text below walks through data of publication PMC10890935.

For assay [1], the target named is T1, PpsR fused to the T18 or T25 fragment of adenylate cyclase (BACTH) (Dinoroseobacter shibae) (UniProt A8LQ24).
T1 sequence: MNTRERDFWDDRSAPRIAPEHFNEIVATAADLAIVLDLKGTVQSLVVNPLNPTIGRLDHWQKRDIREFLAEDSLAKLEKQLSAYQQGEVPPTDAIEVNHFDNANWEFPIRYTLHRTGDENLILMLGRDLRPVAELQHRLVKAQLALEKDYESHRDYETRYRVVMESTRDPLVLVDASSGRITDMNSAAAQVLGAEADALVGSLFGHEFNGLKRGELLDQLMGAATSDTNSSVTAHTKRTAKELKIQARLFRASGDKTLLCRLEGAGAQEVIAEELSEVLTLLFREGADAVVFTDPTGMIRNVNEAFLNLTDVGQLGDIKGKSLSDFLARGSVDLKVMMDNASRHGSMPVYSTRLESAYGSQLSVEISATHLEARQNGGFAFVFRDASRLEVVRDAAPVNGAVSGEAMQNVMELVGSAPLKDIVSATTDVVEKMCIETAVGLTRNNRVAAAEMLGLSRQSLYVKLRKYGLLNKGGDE
The assay can be described thus: two-hybrid; BACTH in E. coli BTH101 as a3, with 15 nM hydroxy cobalamin (vitamin B12) in the medium; blue colour on X-Gal plates and β-galactosidase activity of overnight cultures.

The target of assay [2] is T2, PpaA fused to the T18 or T25 fragment of adenylate cyclase (BACTH) (Dinoroseobacter shibae) (UniProt A8LQ25).
T2 sequence: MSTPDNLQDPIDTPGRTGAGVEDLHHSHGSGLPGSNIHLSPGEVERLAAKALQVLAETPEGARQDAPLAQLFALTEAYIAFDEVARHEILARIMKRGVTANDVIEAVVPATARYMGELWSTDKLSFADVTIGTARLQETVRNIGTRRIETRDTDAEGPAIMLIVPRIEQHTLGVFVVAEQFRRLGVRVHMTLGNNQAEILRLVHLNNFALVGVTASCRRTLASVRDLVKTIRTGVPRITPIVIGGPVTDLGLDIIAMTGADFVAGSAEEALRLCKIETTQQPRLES
The assay can be described thus: condition: only without hydroxy cobalamin in the medium; two-hybrid; Bacterial adenylate cyclase two-hybrid (BACTH) in E. coli BTH101, N- and C-terminal T18 and T25 fusions in all combinations, grown in the dark, no hydroxy cobalamin added; blue colour on LB/X-Gal/IPTG plates and β-galactosidase activity of overnight cultures in 96 well plates.

Assay [3] addresses T1, PpsR fused to the T18 or T25 fragment of adenylate cyclase (BACTH) (Dinoroseobacter shibae). The assay can be described thus: two-hybrid; Bacterial adenylate cyclase two-hybrid (BACTH) in E. coli BTH101, N- and C-terminal T18 and T25 fusions in all combinations, grown in the dark, no hydroxy cobalamin added; blue colour on LB/X-Gal/IPTG plates and β-galactosidase activity of overnight cultures in 96 well plates.

Assay [4] deals with T2, PpaA fused to the T18 or T25 fragment of adenylate cyclase (BACTH) (Dinoroseobacter shibae). The assay can be described thus: two-hybrid; BACTH in E. coli BTH101 as a3, with 15 nM hydroxy cobalamin (vitamin B12) in the medium; blue colour on X-Gal plates and β-galactosidase activity of overnight cultures.
For assay [5] the target is unchanged. The assay can be described thus: condition: only T18 and T25 both fused N-terminally or both C-terminally; two-hybrid; Bacterial adenylate cyclase two-hybrid (BACTH) in E. coli BTH101, N- and C-terminal T18 and T25 fusions in all combinations, grown in the dark, no hydroxy cobalamin added; blue colour on LB/X-Gal/IPTG plates and β-galactosidase activity of overnight cultures in 96 well plates.

Assay [6] addresses T1, PpsR fused to the T18 or T25 fragment of adenylate cyclase (BACTH) (Dinoroseobacter shibae). The assay can be described thus: condition: only without hydroxy cobalamin in the medium; two-hybrid; Bacterial adenylate cyclase two-hybrid (BACTH) in E. coli BTH101, N- and C-terminal T18 and T25 fusions in all combinations, grown in the dark, no hydroxy cobalamin added; blue colour on LB/X-Gal/IPTG plates and β-galactosidase activity of overnight cultures in 96 well plates.

Assay [7] has as its target T2, PpaA fused to the T18 or T25 fragment of adenylate cyclase (BACTH) (Dinoroseobacter shibae). The assay can be described thus: two-hybrid; Bacterial adenylate cyclase two-hybrid (BACTH) in E. coli BTH101, N- and C-terminal T18 and T25 fusions in all combinations, grown in the dark, no hydroxy cobalamin added; blue colour on LB/X-Gal/IPTG plates and β-galactosidase activity of overnight cultures in 96 well plates.

Results are given in words; binding and its absence hold for the method and conditions named. Some binding calls cover weakened binding; strength is not graded here. Tags and fused reporters may be left off the sequences shown.

B1: PpsR fused to the T18 or T25 fragment of adenylate cyclase (BACTH) (protein, UniProt A8LQ24 1-476)
chain: T1 sequence
With B1, the figures for the binding result in assay [1], in assay [2] and in assay [3] were “binds”, “no binding” and “binds”, respectively.

B2: PpaA fused to the T18 or T25 fragment of adenylate cyclase (BACTH) (protein, UniProt A8LQ25 1-286)
chain: T2 sequence
B2: the binding entry in assay [4] is listed as “binds”; in assay [5], “no binding”; in assay [6], “no binding”; in assay [7], “binds”.
